According to article PMC2857016 (The Journal of Biological Chemistry, 2010):
Blank lines part the entries; values can stand above or below the binder they belong to.

Biological target: full-length β-amyloid precursor protein (FL APP) (human, UniProt P05067)
Assay: co-IP

Aph-1 co-immunoprecipitated with APP, % of WT: 52 % of WT
B1: Aph-1αL-HA H197K (natural protein)
chain: not shown

Aph-1 co-immunoprecipitated with APP, % of WT: 27 % of WT
B2: Aph-1αL-HA H171K/H197K (natural protein)
chain: not shown

Aph-1 co-immunoprecipitated with APP, % of WT: 59 % of WT
B3: Aph-1αL-HA H171K (natural protein)
chain: not shown
